± gives the standard deviation of the averaged measurements. Restriction of a single-cycle SIVsab GFP reporter by TRIM5α v1-loop variants in CRFK cells. Human variants: read share among cells still uninfected after two challenges over input, higher = gained restriction. Rhesus variants: share among infected cells over input, higher = lost restriction. Reporter dose not given per row. No active / inactive call per row; the paper calls a change when both replicates lie above its controls (mean + 2 SD of stop or wild-type variants, or the top frameshift score). Residues outside the varied loop are taken from Swiss-Prot. The paper reads the human single-substitution scores as noise; they and the rhesus combinations repeat poorly (rank correlation 0.3 to 0.4), indel scores repeat only for the top variants, rhesus substitutions well (0.9).

The test system of the data set is SIVsab (simian immunodeficiency virus of sabaeus monkeys), single-cycle GFP reporter, in CRFK cells. Put plainly: enrichment among uninfected cells over input (fold); higher = stronger restriction. The settings on record: library: human / rhesus combinations. As to the method: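 Pools of CRFK cells expressing variants of the TRIM5α v1 loop were challenged with the single-cycle reporter, sorted by GFP and sequenced; mean of two replicates.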
Regarding “MASGILVNVKEEVTCPICLELLTQPLSLDCGHSFCQACLTANHKKSMLDKGESSCPVCRISYQPENIRPNRHVANIVEKLREVKLSPEGQKVDHCARHGEKLLLFCQEDGKVICWLCERSQEHRGHHTFLTEEVAREYQVKLQAALEMLRQKQQEAEELEADIREEKASWKTQIQYDKTNVLADFEQLRDILDWEESNELQNLEKEEEDILKSLTNSETEMVQQTQSLRELISDLEHRLQGSVMELLQGVDGVIKRTENVTLKKPETFPKNQRRVFRAPDLKGMLEVFRELTDVRRYWVDVTVAPNNISCAVISEDKRQVSSPKPQIIYQARGTLFTFQSLTNFNYCTGILGSQSITSGKHYWEVDVSKKTAWILGVCAGFQPDAMCNIEKNENYQPKYGYWVIGLEEGVKCSAFQDSSFHTPSVPFIVPLSVIICPDRVGVFLDYEACTVSFFNITNHGFLIYKFSHCSFSQPVFPYLNPRKCGVPMTLCSPSS [human TRIM5α, 330-340 = QARGTLFTFQSLT]”, the enrichment was 0.252 ± 0.064. “MASGILVNVKEEVTCPICLELLTQPLSLDCGHSFCQACLTANHKKSMLDKGESSCPVCRISYQPENIRPNRHVANIVEKLREVKLSPEGQKVDHCARHGEKLLLFCQEDGKVICWLCERSQEHRGHHTFLTEEVAREYQVKLQAALEMLRQKQQEAEELEADIREEKASWKTQIQYDKTNVLADFEQLRDILDWEESNELQNLEKEEEDILKSLTNSETEMVQQTQSLRELISDLEHRLQGSVMELLQGVDGVIKRTENVTLKKPETFPKNQRRVFRAPDLKGMLEVFRELTDVRRYWVDVTVAPNNISCAVISEDKRQVSSPKPQIIYQARGTLFTFQSLVNFNYCTGILGSQSITSGKHYWEVDVSKKTAWILGVCAGFQPDAMCNIEKNENYQPKYGYWVIGLEEGVKCSAFQDSSFHTPSVPFIVPLSVIICPDRVGVFLDYEACTVSFFNITNHGFLIYKFSHCSFSQPVFPYLNPRKCGVPMTLCSPSS [human TRIM5α, 330-340 = QARGTLFTFQSLV]”: the enrichment is 0.098 ± 0.022. Regarding “MASGILVNVKEEVTCPICLELLTQPLSLDCGHSFCQACLTANHKKSMLDKGESSCPVCRISYQPENIRPNRHVANIVEKLREVKLSPEGQKVDHCARHGEKLLLFCQEDGKVICWLCERSQEHRGHHTFLTEEVAREYQVKLQAALEMLRQKQQEAEELEADIREEKASWKTQIQYDKTNVLADFEQLRDILDWEESNELQNLEKEEEDILKSLTNSETEMVQQTQSLRELISDLEHRLQGSVMELLQGVDGVIKRTENVTLKKPETFPKNQRRVFRAPDLKGMLEVFRELTDVRRYWVDVTVAPNNISCAVISEDKRQVSSPKPQIIYQARGTLFTFQTFTNFNYCTGILGSQSITSGKHYWEVDVSKKTAWILGVCAGFQPDAMCNIEKNENYQPKYGYWVIGLEEGVKCSAFQDSSFHTPSVPFIVPLSVIICPDRVGVFLDYEACTVSFFNITNHGFLIYKFSHCSFSQPVFPYLNPRKCGVPMTLCSPSS [human TRIM5α, 330-340 = QARGTLFTFQTFT]”, the enrichment was 0.791 ± 0.25. Then “MASGILVNVKEEVTCPICLELLTQPLSLDCGHSFCQACLTANHKKSMLDKGESSCPVCRISYQPENIRPNRHVANIVEKLREVKLSPEGQKVDHCARHGEKLLLFCQEDGKVICWLCERSQEHRGHHTFLTEEVAREYQVKLQAALEMLRQKQQEAEELEADIREEKASWKTQIQYDKTNVLADFEQLRDILDWEESNELQNLEKEEEDILKSLTNSETEMVQQTQSLRELISDLEHRLQGSVMELLQGVDGVIKRTENVTLKKPETFPKNQRRVFRAPDLKGMLEVFRELTDVRRYWVDVTVAPNNISCAVISEDKRQVSSPKPQIIYQARGTLFTFQTFVNFNYCTGILGSQSITSGKHYWEVDVSKKTAWILGVCAGFQPDAMCNIEKNENYQPKYGYWVIGLEEGVKCSAFQDSSFHTPSVPFIVPLSVIICPDRVGVFLDYEACTVSFFNITNHGFLIYKFSHCSFSQPVFPYLNPRKCGVPMTLCSPSS [human TRIM5α, 330-340 = QARGTLFTFQTFV]”, with 0.012 ± 0.016; and “MASGILVNVKEEVTCPICLELLTQPLSLDCGHSFCQACLTANHKKSMLDKGESSCPVCRISYQPENIRPNRHVANIVEKLREVKLSPEGQKVDHCARHGEKLLLFCQEDGKVICWLCERSQEHRGHHTFLTEEVAREYQVKLQAALEMLRQKQQEAEELEADIREEKASWKTQIQYDKTNVLADFEQLRDILDWEESNELQNLEKEEEDILKSLTNSETEMVQQTQSLRELISDLEHRLQGSVMELLQGVDGVIKRTENVTLKKPETFPKNQRRVFRAPDLKGMLEVFRELTDVRRYWVDVTVAPNNISCAVISEDKRQVSSPKPQIIYQARGTLFTFQTLTNFNYCTGILGSQSITSGKHYWEVDVSKKTAWILGVCAGFQPDAMCNIEKNENYQPKYGYWVIGLEEGVKCSAFQDSSFHTPSVPFIVPLSVIICPDRVGVFLDYEACTVSFFNITNHGFLIYKFSHCSFSQPVFPYLNPRKCGVPMTLCSPSS [human TRIM5α, 330-340 = QARGTLFTFQTLT]”, with 0.0575 ± 0.0057. “MASGILVNVKEEVTCPICLELLTQPLSLDCGHSFCQACLTANHKKSMLDKGESSCPVCRISYQPENIRPNRHVANIVEKLREVKLSPEGQKVDHCARHGEKLLLFCQEDGKVICWLCERSQEHRGHHTFLTEEVAREYQVKLQAALEMLRQKQQEAEELEADIREEKASWKTQIQYDKTNVLADFEQLRDILDWEESNELQNLEKEEEDILKSLTNSETEMVQQTQSLRELISDLEHRLQGSVMELLQGVDGVIKRTENVTLKKPETFPKNQRRVFRAPDLKGMLEVFRELTDVRRYWVDVTVAPNNISCAVISEDKRQVSSPKPQIIYQARGTLFTFQTLVNFNYCTGILGSQSITSGKHYWEVDVSKKTAWILGVCAGFQPDAMCNIEKNENYQPKYGYWVIGLEEGVKCSAFQDSSFHTPSVPFIVPLSVIICPDRVGVFLDYEACTVSFFNITNHGFLIYKFSHCSFSQPVFPYLNPRKCGVPMTLCSPSS [human TRIM5α, 330-340 = QARGTLFTFQTLV]”: the enrichment was found to be 0.287 ± 0.051.

For “MASGILVNVKEEVTCPICLELLTQPLSLDCGHSFCQACLTANHKKSMLDKGESSCPVCRISYQPENIRPNRHVANIVEKLREVKLSPEGQKVDHCARHGEKLLLFCQEDGKVICWLCERSQEHRGHHTFLTEEVAREYQVKLQAALEMLRQKQQEAEELEADIREEKASWKTQIQYDKTNVLADFEQLRDILDWEESNELQNLEKEEEDILKSLTNSETEMVQQTQSLRELISDLEHRLQGSVMELLQGVDGVIKRTENVTLKKPETFPKNQRRVFRAPDLKGMLEVFRELTDVRRYWVDVTVAPNNISCAVISEDKRQVSSPKPQIIYQARGTLYPSLVNFNYCTGILGSQSITSGKHYWEVDVSKKTAWILGVCAGFQPDAMCNIEKNENYQPKYGYWVIGLEEGVKCSAFQDSSFHTPSVPFIVPLSVIICPDRVGVFLDYEACTVSFFNITNHGFLIYKFSHCSFSQPVFPYLNPRKCGVPMTLCSPSS [human TRIM5α, 330-340 = QARGTLYPSLV]”, the enrichment turned out to be 0.197 ± 0.28. Turning to “MASGILVNVKEEVTCPICLELLTQPLSLDCGHSFCQACLTANHKKSMLDKGESSCPVCRISYQPENIRPNRHVANIVEKLREVKLSPEGQKVDHCARHGEKLLLFCQEDGKVICWLCERSQEHRGHHTFLTEEVAREYQVKLQAALEMLRQKQQEAEELEADIREEKASWKTQIQYDKTNVLADFEQLRDILDWEESNELQNLEKEEEDILKSLTNSETEMVQQTQSLRELISDLEHRLQGSVMELLQGVDGVIKRTENVTLKKPETFPKNQRRVFRAPDLKGMLEVFRELTDVRRYWVDVTVAPNNISCAVISEDKRQVSSPKPQIIYQARGTLYPTFVNFNYCTGILGSQSITSGKHYWEVDVSKKTAWILGVCAGFQPDAMCNIEKNENYQPKYGYWVIGLEEGVKCSAFQDSSFHTPSVPFIVPLSVIICPDRVGVFLDYEACTVSFFNITNHGFLIYKFSHCSFSQPVFPYLNPRKCGVPMTLCSPSS [human TRIM5α, 330-340 = QARGTLYPTFV]”, the enrichment was found to be 0.00562 ± 0.00018.

Values taken from the supplement of paper PMC12230231.
